# In PMC4336329 (PLoS ONE, 2015):
# Out of some 310,000 compounds screened, about 2,200 (0.71%) showed an effect of 50% or more. Effects have a minus sign here. The list shows a part of the results.
# Target: human ether-à-go-go-related gene (hERG) potassium channel (human, UniProt Q12809)
# Test: primary screen, population patch clamp on CHO cells stably expressing hERG
# Chain of human ether-à-go-go-related gene (hERG) potassium channel (Q12809 whole entry, looked up): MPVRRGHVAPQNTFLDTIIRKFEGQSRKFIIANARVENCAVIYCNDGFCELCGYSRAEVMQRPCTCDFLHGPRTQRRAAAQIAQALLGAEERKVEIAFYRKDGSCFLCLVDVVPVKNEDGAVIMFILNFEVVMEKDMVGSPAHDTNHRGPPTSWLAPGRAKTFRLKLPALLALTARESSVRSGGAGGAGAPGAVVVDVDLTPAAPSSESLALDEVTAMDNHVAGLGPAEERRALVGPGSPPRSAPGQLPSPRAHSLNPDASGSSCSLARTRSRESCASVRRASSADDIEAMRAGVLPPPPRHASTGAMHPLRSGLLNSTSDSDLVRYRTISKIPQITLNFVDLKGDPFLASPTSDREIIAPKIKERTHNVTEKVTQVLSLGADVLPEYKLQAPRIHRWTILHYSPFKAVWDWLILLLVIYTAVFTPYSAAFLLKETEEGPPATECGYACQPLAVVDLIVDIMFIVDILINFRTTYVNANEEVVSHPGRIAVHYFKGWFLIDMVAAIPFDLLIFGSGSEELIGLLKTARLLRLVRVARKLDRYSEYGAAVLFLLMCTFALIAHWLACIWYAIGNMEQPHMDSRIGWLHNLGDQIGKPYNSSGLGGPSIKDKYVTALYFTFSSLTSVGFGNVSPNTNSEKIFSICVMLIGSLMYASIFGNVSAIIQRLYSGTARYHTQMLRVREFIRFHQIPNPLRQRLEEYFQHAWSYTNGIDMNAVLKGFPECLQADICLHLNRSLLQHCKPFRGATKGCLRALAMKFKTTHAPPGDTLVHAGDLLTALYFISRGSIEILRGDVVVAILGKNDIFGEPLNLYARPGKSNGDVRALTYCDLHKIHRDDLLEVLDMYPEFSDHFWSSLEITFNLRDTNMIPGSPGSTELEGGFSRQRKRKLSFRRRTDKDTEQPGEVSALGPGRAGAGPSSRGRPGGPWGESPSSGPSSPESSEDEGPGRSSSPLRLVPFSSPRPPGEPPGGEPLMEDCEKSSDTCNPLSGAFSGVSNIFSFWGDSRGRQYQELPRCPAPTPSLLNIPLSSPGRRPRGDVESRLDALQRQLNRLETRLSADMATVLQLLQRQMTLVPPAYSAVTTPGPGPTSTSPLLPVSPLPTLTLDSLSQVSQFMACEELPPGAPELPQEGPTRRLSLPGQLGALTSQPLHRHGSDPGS
row,SMILES,"hERG current change (%, negative = inhibition) at 1uM [%]"
1,Cc1cc(C(=O)N/N=C/c2cc(Br)cc(Br)c2OC(=O)c2ccccc2)n[nH]1,12.7
2,CCOc1cc(-c2sc(Nc3ccccc3)n[n+]2C)ccc1OC.[Cl-],10.4
3,COCCCNC(=S)Nc1cc(C)c(C)cc1C,8.85
4,O=C(CO)N/N=C/c1c2ccccc2cc2ccccc12,1.3
5,O=C(CCCCCNC(=O)N1CCn2c1nc1ccccc12)NCc1ccc(Cl)cc1,8.31
6,CCc1sc(C(=O)NCc2cc(C)n(C)n2)cc1Br,4.86
7,COc1ccc(-n2c(=S)[nH]c3cc(C(=O)Nc4ccc(OC)c(OC)c4)ccc3c2=O)cc1,11.5
8,COc1ccc(CN2CCC(C(=O)c3ccc(F)cc3)CC2)cc1,-81
9,Cc1ccccc1-n1c(Cn2c(=O)sc3ccccc32)nnc1SCC(N)=O,10.6
10,Cc1ccc(C(=O)CCC(=O)Nc2ccccc2C)c(C)c1,17.7
11,Cc1ccccc1N1C(=O)C(Oc2ccc(Cl)cc2)C1CNC(C)(C)C (stereo not drawn),6.07
12,Cc1ccsc1C(=O)Nc1ccc(O)c(-c2nc3ccccc3s2)c1,9.33
13,CCOC(=O)c1sc2nc(NC(=O)C(C)(C)C)sc2c1C,5.16
14,O=c1cc(-c2ccc(C3CCCCC3)cc2)[nH][nH]1,11.5
15,COc1cccc(OCCSc2nc3ccccc3c(=O)[nH]2)c1,9.47
16,CC(=O)c1cccc(OC(=O)c2ccc3c(=O)n4c(nc3c2)CCC4)c1,-0.703
17,Cc1ccc(Cl)cc1NC(=S)N(CCN(C)C)Cc1cccs1,9.99
18,COc1ccc(N2CCN(C(=S)Nc3ccc(OC)cc3OC)CC2)cc1,12
19,COC(=O)CN(c1ccc(OC)cc1)S(=O)(=O)c1ccc(OC)c(OC)c1,0.542

row,SMILES,"hERG current change (%, negative = inhibition) at 1uM [%]"
1,Cc1ccc(S(=O)(=O)C2(C(=O)N3CCN(C4CCCCC4)CC3)CC2)cc1,2.75
2,CC(=O)c1ccc(NC(=O)c2cc3ccccc3o2)cc1,13.3
3,Cn1nccc1C(=O)OCC(=O)Nc1nc(-c2ccccc2)cs1,-9.27
4,Cc1ccc(NC(=O)Cn2cc([N+](=O)[O-])nc2C)cc1C,13.1
5,O=C(Nc1cccc(CCc2ccccn2)c1)c1ccc(Cl)cc1,5.78
6,COc1cccc(CN(C(=O)c2cccs2)C2CCS(=O)(=O)C2)c1 (stereo not drawn),7.21
7,Cc1ccc(C(C)NC(=S)NC2CCCCC2)c(C)c1 (stereo not drawn),13.7
8,CC(=O)O.CC(=O)Oc1ccc(-c2csc(Nc3ccc(S(N)(=O)=O)cc3)n2)cc1,7.11
9,CC1CCN(CC(O)COc2ccc(-c3ccccc3)cc2)CC1.Cl (stereo not drawn),-25.2
10,COc1cc(CCCN2C(=S)NC[C@@H]2c2ccccc2)cc(OC)c1OC,12.8
11,Cc1n[nH]c(=O)c2c(NC(=O)COC(=O)c3cc(F)cc(F)c3)oc(C)c12,15.9
12,COc1ccc(/C=N/NC(=O)c2nnn(-c3nonc3N)c2CN(C)C2CCCCC2)cc1,2.26
13,C=CCn1c(-c2ccccc2)nc(=S)c2c1CC(C)(C)OC2,11.6
14,CCC(=O)Nc1nc(NCc2ccccc2OC)n(-c2ccccc2)n1,5.66
15,COc1ccc(N(C(=O)c2snc(C(N)=O)c2N)C(C(=O)NC2CCCC2)c2cc(OC)ccc2OC)c(OC)c1 (stereo not drawn),18.2
16,CSc1ccccc1NC(=O)Nc1cccc2ccccc12,12.8
17,COc1ccc(C2NC(=O)c3sc(=S)n(-c4ccccc4)c3N2)cc1 (stereo not drawn),2.53
18,Nn1c(SCC(=O)Nc2cc(C(F)(F)F)ccc2Cl)nncc1=O,2.57
19,COc1ccc(NC(=O)CSc2nnc(NC(=O)C3CCC3)s2)c(OC)c1,14.4

row,SMILES,"hERG current change (%, negative = inhibition) at 1uM [%]"
1,CCOC(=O)C1(CCOc2ccccc2)CCN(Cc2ccc3nonc3c2)CC1,0.31
2,CCN(CC)c1ccc(N=Cc2c(O)n(-c3ccccc3C)c(=O)[nH]c2=O)cc1,7.41
3,CCCC(=O)NCCc1ccc(F)cc1,11.1
4,CC1(C)Cc2nc(-c3ccccc3)nc(SCC(=O)N3CCCC3)c2CO1,11
5,CCOc1ccccc1NC(=S)NCCc1ccccc1,9.57
6,COc1cccc(NC(=O)NCc2ccccc2F)c1,12.7
7,CCOc1ccc(NC(=O)c2cc3cc4ccc(OC)cc4nc3o2)cc1,13.7
8,COc1ccc(NC(=O)c2c(-c3ccccc3)noc2C)c(OC)c1,1.7
9,COC(=O)/C=C1\S/C(=N\N=C\CC(=O)OC)NC1=O,17.3
10,O=C(NC1CC2CCCC(C1)N2C(=O)N1CCCCC1)C1CCCCC1 (stereo not drawn),-4.15
11,Cc1ccc2c(c1)C1CCCC3C1N2CC(=O)N3Cc1ccccc1 (stereo not drawn),12.9
12,CCOC(=O)c1nnc(-c2ccc(C)cc2)nc1Sc1ccc(Cl)cc1,6.19
13,CCOc1cc(C(=O)Nc2ccc3c4c(cccc24)C(=O)N3CC)cc(OCC)c1OCC,0.475
14,Cc1ccc(CNS(=O)(=O)c2ccc(CN3C(=O)c4cccnc4C3=O)cc2)o1,14.6
15,COC(=O)c1ccc(NC(=O)CN2CCN(S(=O)(=O)c3cc(Cl)ccc3OC)CC2)cc1,10.2
16,COc1ccc(CN(C)C(=O)c2ccccc2Sc2ccccc2C#N)c(OC)c1,9.02
17,COc1ccc(-n2nnnc2-c2ccccc2)cc1,13.6
18,COc1cc(/C=C2\C(=O)NC(=O)N(CCc3ccc(F)cc3)C2=O)ccc1O,10.3
19,CCCCn1c(N)c(N(CC(C)C)C(=O)C2CCCN(C(=O)c3ccc(Cl)cc3)C2)c(=O)[nH]c1=O (stereo not drawn),19.5
